# Measured values: the supplement of paper PMC8728848
# This is one part of the list.
# B1: GALT1 615 (Arabidopsis thaliana), Q8L7F9 (protein)
# chain: DPMRGSHHHHHHGMASMTGGQQMGRDLYDDDDKSRLQKPYITAAASVVVTPNTTLPMEWLRITLPDFMKEARNTQEAISGDDIAVVSGLFVEQNVSKEEREPLLTWNRLESLVDNAQSLVNGVDAIKEAGIVWESLVSAVEAKKLVDVNENQTRKGKEELCPQFLSKMNATEADGSSLKLQIPCGLTQGSSITVIGIPDGLVGSFRIDLTGQPLPGEPDPPIIVHYNVRLLGDKSTEDPVIVQNSWTASQDWGAEERCPKFDPDMNKKVDDLDECNKMVGGEINRTSSTSLQSNTSRGVPVAREASKHEKYFPFKQGFLSVATLRVGTEGMQMTVDGKHITSFAFRDTLEPWLVSEIRITGDFRLISILA
# Assays:
# Assay in all cases: glycan array binding signal (z-score within array); higher = stronger binding
# Settings in all cases: glycan notation: IUPAC condensed, linker removed
# Gal(a1-2)Gal = target: Gal(a1-2)Gal
# How it was run: (§1)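 Negative Z-scores can be read as non-binding. The Z-score is calculated within each array and then averaged across arrays of one protein sequence at different concentrations or buffers and across linkers. Arrays, 3228 in all, were curated from the Consortium for Functional Glycomics database and kept only where the protein sequence was available.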
# Gal(a1-3)Gal = target: Gal(a1-3)Gal
# How it was run: as §1
# Gal(a1-3)Gal(b1-3)GlcNAc = target: Gal(a1-3)Gal(b1-3)GlcNAc
# How it was run: as §1
# Gal(a1-3)Gal(b1-4)Glc = target: Gal(a1-3)Gal(b1-4)Glc
# How it was run: as §1
# Gal(a1-3)Gal(b1-4)GlcNAc = target: Gal(a1-3)Gal(b1-4)GlcNAc
# How it was run: as §1
# [1] = target: Gal(a1-3)Gal(b1-4)[Fuc(a1-3)]GlcNAc
# How it was run: as §1
# [2] = target: Gal(a1-3)Gal(b1-4)[Fuc(a1-3)]GlcNAc(b1-2)Man(a1-3)[Gal(a1-3)Gal(b1-4)[Fuc(a1-3)]GlcNAc(b1-2)Man(a1-6)]Man(b1-4)GlcNAc(b1-4)GlcNAc
# How it was run: as §1
# Gal(a1-3)GalNAc = target: Gal(a1-3)GalNAc
# How it was run: as §1
# [3] = target: Gal(a1-3)[Gal(a1-4)]Gal(b1-4)GlcNAc
# How it was run: as §1
# Gal(a1-4)Gal(b1-4)Glc = target: Gal(a1-4)Gal(b1-4)Glc
# How it was run: as §1
# Gal(a1-4)Gal(b1-4)GlcNAc = target: Gal(a1-4)Gal(b1-4)GlcNAc
# How it was run: as §1
# [4] = target: Gal(a1-4)Gal(b1-4)GlcNAc(b1-3)Gal(b1-4)Glc
# How it was run: as §1
# Gal(a1-4)GlcNAc = target: Gal(a1-4)GlcNAc
# How it was run: as §1
# Gal(a1-6)Glc = target: Gal(a1-6)Glc
# How it was run: as §1
# Gal(b1-2)Gal = target: Gal(b1-2)Gal
# How it was run: as §1
# Gal(b1-3)Gal = target: Gal(b1-3)Gal
# How it was run: as §1
# Gal(b1-3)Gal(b1-4)GlcNAc = target: Gal(b1-3)Gal(b1-4)GlcNAc
# How it was run: as §1
# [5] = target: Gal(b1-3)Gal(b1-4)GlcNAc(b1-2)Man(a1-3)[Gal(b1-3)Gal(b1-4)GlcNAc(b1-2)Man(a1-6)]Man(b1-4)GlcNAc(b1-4)GlcNAc
# How it was run: as §1
# Gal(b1-3)GalNAc = target: Gal(b1-3)GalNAc
# How it was run: as §1
# [6] = target: Gal(b1-3)GalNAc(a1-3)[Fuc(a1-2)]Gal(b1-4)Glc
# How it was run: as §1
# [7] = target: Gal(b1-3)GalNAc(a1-3)[Fuc(a1-2)]Gal(b1-4)GlcNAc
# How it was run: as §1
# [8] = target: Gal(b1-3)GalNAc(b1-3)Gal(a1-4)Gal(b1-4)Glc
# How it was run: as §1
# [9] = target: Gal(b1-3)GalNAc(b1-4)Gal(b1-4)Glc
# How it was run: as §1
# [10] = target: Gal(b1-3)GalNAc(b1-4)[Neu5Ac(a2-3)]Gal(b1-4)Glc
# How it was run: as §1
# Gal(b1-3)GlcNAc = target: Gal(b1-3)GlcNAc
# How it was run: as §1
# [11] = target: Gal(b1-3)GlcNAc(b1-2)Man(a1-3)[Gal(b1-3)GlcNAc(b1-2)Man(a1-6)]Man(b1-4)GlcNAc(b1-4)GlcNAc
# How it was run: as §1
# [12] = target: Gal(b1-3)GlcNAc(b1-2)Man(a1-3)[Gal(b1-3)GlcNAc(b1-2)Man(a1-6)]Man(b1-4)GlcNAc(b1-4)[Fuc(a1-6)]GlcNAc
# How it was run: as §1
# [13] = target: Gal(b1-3)GlcNAc(b1-3)Gal(b1-3)GlcNAc
# How it was run: as §1
# [14] = target: Gal(b1-3)GlcNAc(b1-3)Gal(b1-4)Glc
# How it was run: as §1
# [15] = target: Gal(b1-3)GlcNAc(b1-3)Gal(b1-4)GlcNAc
# How it was run: as §1
# [16] = target: Gal(b1-3)[Fuc(a1-4)]GlcNAc
# How it was run: as §1
# [17] = target: Gal(b1-3)[Fuc(a1-4)]GlcNAc(b1-2)Man(a1-3)[Gal(b1-3)[Fuc(a1-4)]GlcNAc(b1-2)Man(a1-6)]Man(b1-4)GlcNAc(b1-4)GlcNAc
# How it was run: as §1
# [18] = target: Gal(b1-3)[Fuc(a1-4)]GlcNAc(b1-2)Man(a1-3)[Gal(b1-3)[Fuc(a1-4)]GlcNAc(b1-2)Man(a1-6)]Man(b1-4)GlcNAc(b1-4)[Fuc(a1-6)]GlcNAc
# How it was run: as §1
# [19] = target: Gal(b1-3)[Fuc(a1-4)]GlcNAc(b1-3)Gal(b1-3)[Fuc(a1-4)]GlcNAc
# How it was run: as §1
# [20] = target: Gal(b1-3)[Fuc(a1-4)]GlcNAc(b1-3)Gal(b1-4)GlcNAc
# How it was run: as §1
# [21] = target: Gal(b1-3)[Fuc(a1-4)]GlcNAc(b1-3)Gal(b1-4)[Fuc(a1-3)]GlcNAc
# How it was run: as §1
# [22] = target: Gal(b1-3)[GlcNAc(b1-6)]GalNAc
# How it was run: as §1
binder,measurement,setting,value
B1,glycan array binding signal (z-score),Gal(a1-2)Gal,-0.462
same,glycan array binding signal (z-score),Gal(a1-3)Gal,-0.105
same,glycan array binding signal (z-score),Gal(a1-3)Gal(b1-3)GlcNAc,-0.514
same,glycan array binding signal (z-score),Gal(a1-3)Gal(b1-4)Glc,0.489
same,glycan array binding signal (z-score),Gal(a1-3)Gal(b1-4)GlcNAc,-0.212
same,glycan array binding signal (z-score),[1],-0.144
same,glycan array binding signal (z-score),[2],-0.396
same,glycan array binding signal (z-score),Gal(a1-3)GalNAc,-0.236
same,glycan array binding signal (z-score),[3],-0.363
same,glycan array binding signal (z-score),Gal(a1-4)Gal(b1-4)Glc,-0.255
same,glycan array binding signal (z-score),Gal(a1-4)Gal(b1-4)GlcNAc,-0.304
same,glycan array binding signal (z-score),[4],-0.349
same,glycan array binding signal (z-score),Gal(a1-4)GlcNAc,0.152
same,glycan array binding signal (z-score),Gal(a1-6)Glc,-0.628
same,glycan array binding signal (z-score),Gal(b1-2)Gal,-0.259
same,glycan array binding signal (z-score),Gal(b1-3)Gal,-0.364
same,glycan array binding signal (z-score),Gal(b1-3)Gal(b1-4)GlcNAc,-0.135
same,glycan array binding signal (z-score),[5],0.099
same,glycan array binding signal (z-score),Gal(b1-3)GalNAc,-0.036
same,glycan array binding signal (z-score),[6],-0.221
same,glycan array binding signal (z-score),[7],0.064
same,glycan array binding signal (z-score),[8],-0.274
same,glycan array binding signal (z-score),[9],-0.508
same,glycan array binding signal (z-score),[10],0.13
same,glycan array binding signal (z-score),Gal(b1-3)GlcNAc,-0.556
same,glycan array binding signal (z-score),[11],0.106
same,glycan array binding signal (z-score),[12],-0.217
same,glycan array binding signal (z-score),[13],-0.271
same,glycan array binding signal (z-score),[14],-0.508
same,glycan array binding signal (z-score),[15],-0.134
same,glycan array binding signal (z-score),[16],-0.131
same,glycan array binding signal (z-score),[17],-0.574
same,glycan array binding signal (z-score),[18],-0.275
same,glycan array binding signal (z-score),[19],-0.313
same,glycan array binding signal (z-score),[20],-0.317
same,glycan array binding signal (z-score),[21],-0.458
same,glycan array binding signal (z-score),[22],-0.125
